In the supplement of paper PMC12217912:
Some of the results follow. The full chains were built here from the parent and the listed change. Values near 0.05 are background.

B1: TEV protease; numbered along this chain (parent)
chain: MGESLFKGPRDYNPISSSICHLTNESDGHTTSLYGIGFGPFIITNKHLFRRNNGTLVVQSLHGVFKVKDTTTLQQHLVDGRDMIIIRMPKDFPPFPQKLKFREPQREERICLVTTNFQTKSMSSMVSDTSCTFPSGDGIFWKHWIQTKDGQCGSPLVSTRDGFIVGIHSASNFTNTNNYFTSVPKNFMELLTNQEAQQWVSGWRLNADSVLWGGHKVFMVKPEEPFQPVKEATQL

Variants of: B1
Test: raw area under fraction-flipped curve 0-4 h after induction (AUC4h, not background-subtracted), DNA-recorder readout of cleavage of the substrate (dimensionless); higher = more cleavage of the substrate by the protease variant
Conditions: temperature: 34 °C; time window: 0-4 h after rhamnose induction
Method: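 In vivo DNA recorder in E. coli TOP10(DE3) ΔrhaA at 34 °C. Each TEVp single-site mutant (parent TEVp 0) is paired with a single-site variant of the 7-mer TEVs (canonical ENLYFQ|S). The substrate sits between flexible linkers in a Bxb1-sfGFP-TEVs-SsrA fusion, so cleavage stabilises Bxb1 and speeds flipping of a recombination array, read by NGS. The value is the raw area under the fraction-flipped curve over 0-4 h after rhamnose induction (AUC4h), with ≥20 reads per time point. It is not background-subtracted; inactive controls average about 0.047.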
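Note: Bxb1 expression induced with 0.2% (w/v) L-rhamnose at OD600 near 0.5, cultures sampled hourly, flipped fraction per protease–substrate barcode pair counted by paired-end Illumina sequencing.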

Variant	area with substrate ENLAFQS	area with substrate ENLCFQS	area with substrate ENLDFQS	area with substrate ENLFFQS	area with substrate ENLHFQS	area with substrate ENLIFQS	area with substrate ENLKFQS	area with substrate ENLLFQS	area with substrate ENLNFQS	area with substrate ENLPFQS	area with substrate ENLRFQS	area with substrate ENLSFQS	area with substrate ENLTFQS	area with substrate ENLVFQS	area with substrate ENLWFQS	area with substrate ENLEFQS	area with substrate ENLMFQS	area with substrate ENLQFQS	area with substrate ENLGFQS
D161V	0.052	0.057	0.057	0.0545	0.0574	0.0513	0.0622	0.0561	0.0567	0.0532	0.0542	0.0549	0.0508	0.0549	0.0625	–	–	–	–
T192Q	0.0685	0.0539	0.0603	0.0916	0.0729	0.0768	0.0716	0.076	0.0724	0.0536	–	0.0559	–	0.0882	0.0715	0.0719	0.0974	0.0699	–
G54I	0.0512	0.0779	0.0501	0.0559	0.0542	0.0546	0.0542	0.0521	0.0454	0.0541	0.0563	0.0626	–	0.0616	0.0652	0.06	–	0.0469	–
D11W	0.0642	0.0841	0.0622	0.0636	0.0724	0.0848	0.0794	0.0665	0.0639	0.0518	0.0694	0.0512	0.0791	–	0.0605	0.0648	–	–	0.077
G162C	0.0526	0.067	0.0572	0.0902	0.0814	0.0741	0.0708	0.0755	0.063	0.0603	0.0748	0.0542	–	–	0.0445	0.0781	–	0.0643	0.0672
L61G	0.0647	–	0.0648	0.0983	0.078	–	0.0764	–	0.0679	0.0683	0.0858	0.0656	–	–	0.052	0.0677	–	–	0.0685
K216D	0.0685	–	0.0672	0.0674	–	–	–	0.0531	–	–	0.0667	–	–	–	–	–	0.0394	–	–
I43R	0.056	–	0.0494	0.036	0.0493	0.0582	0.0501	0.0555	0.052	0.0556	0.0276	0.0516	–	–	0.041	0.054	0.0598	0.0333	–
H168N	0.0675	0.0563	0.0608	0.0433	0.0742	–	–	0.0746	0.0707	–	–	0.055	–	–	–	–	–	–	–
L48V	0.0643	–	0.0663	0.0747	0.0656	0.0698	0.0644	–	0.0638	0.0626	0.0627	0.0652	–	0.0735	0.0528	0.0601	–	0.0606	0.0643
L48M	0.0651	0.0562	–	0.0768	0.0573	0.0631	0.0591	0.0684	0.0559	0.0699	–	0.0632	0.0534	0.0733	0.0436	0.103	0.0587	0.0636	–
L48S	0.0595	–	0.0619	0.0718	0.0626	–	0.0804	0.046	0.061	–	0.0566	0.0641	–	0.069	0.0617	0.0747	–	0.0573	0.0898
T72A	0.0725	–	0.0331	0.0787	0.0564	–	–	–	0.0634	–	0.0579	–	–	–	–	0.0639	–	0.0793	–
T72G	0.0603	0.0732	0.0509	0.0752	–	–	0.0716	–	–	–	0.077	0.0675	–	–	–	0.0642	–	–	–
V64L	0.0633	0.0609	–	0.0836	0.0811	–	–	–	0.0662	0.0759	–	0.0692	–	0.0857	0.084	–	–	–	–
T176I	0.0625	0.0661	0.0632	0.0781	–	0.0604	0.0694	0.0615	0.0658	0.0662	–	0.0709	–	0.0405	–	0.066	–	0.0503	0.0715
T176M	0.0676	0.067	0.0657	–	0.0427	0.0588	0.0711	–	0.0659	0.0644	–	0.0522	–	0.0335	0.0656	–	–	0.0885	0.0452
W203A	0.0626	0.0651	0.064	0.0527	0.0618	–	0.0623	–	0.0661	0.0582	–	0.0701	–	–	–	0.0677	–	0.0737	–
I164A	0.0501	0.0455	0.0622	0.0625	0.0457	0.0637	0.0603	–	0.0431	0.0454	0.062	0.0497	–	0.0749	–	0.048	–	–	–
W144H	0.0636	0.066	0.0624	0.0579	0.0712	0.0674	0.0778	–	0.0634	0.0509	0.0669	0.0843	–	–	0.0663	0.0498	0.0612	0.0692	–
P40K	0.0394	–	0.0669	0.137	0.072	0.102	0.0754	0.0556	0.0497	0.0405	0.0795	0.0536	–	0.0666	–	0.0504	–	–	–
P40F	0.0701	–	0.0571	0.0757	0.0511	0.0839	0.074	–	0.0699	0.0612	0.0882	0.067	–	0.0804	0.0722	0.0603	–	–	0.0541
S16M	0.0877	0.0104	0.0453	0.0801	0.079	0	0.099	0.0697	0.0731	–	0.0958	0.0712	–	0.0696	–	0.0614	0.0739	0.0768	–
S16N	0.0697	0.0646	0.0796	0.0817	0.0677	–	0.0764	0.062	0.064	0.0526	0.0942	0.0659	–	–	–	0.0709	0.0789	0.0822	0.0891
S16D	0.0637	0.0635	–	0.08	0.0595	0.0572	0.0682	–	0.0909	0.0585	–	0.0688	0.087	0.0606	0.053	0.0457	–	–	0.0757
N177E	0.0547	0.0474	0.0579	0.0734	0.0611	–	0.0759	0.0376	0.0692	–	0.0623	0.0584	0.0671	–	0.0733	0.0699	0.0717	0.0339	0.0674
